Drawing on PMC9911399, “Two distinct binding modes provide the RNA-binding protein RbFox with extraordinary sequence specificity”, this text covers binding signal for 31 molecules.

Changes are numbered by the printed parent chain; changes in the protein carry UniProt numbers. The list shows a part of the results.

The labels stand for the following.
T1: RBFOX1 RRM RbFoxmut (Fox-RRM*) (Homo sapiens, UniProt Q9NWB1 109-208, R118D;E147R;N151S;E152T)
T1 sequence: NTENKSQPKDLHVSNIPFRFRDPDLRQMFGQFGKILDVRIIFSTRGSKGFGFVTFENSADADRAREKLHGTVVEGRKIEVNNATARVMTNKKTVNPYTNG

B1: GCGUACA (DNA:RNA)
RNA: GGGAGACCGGAAUUCAGAUUGUCCGCGUACAUUAAAUCCCGUCGUAGCCACCA
DNA 1: CAATCTGAATTCCGGTCTCCC
DNA 2: TGGTGGCTACGACGGGATT
B2: AUACAAA (DNA:RNA)
RNA: B1 RNA with G25A, C26U, G27A, U28C, C30A
DNA 1: CAATCTGAATTCCGGTCTCCC
DNA 2: TGGTGGCTACGACGGGATT
B3: UUCUGGG (DNA:RNA)
RNA: B1 RNA with G25U, C26U, G27C, A29G, C30G, A31G
DNA 1: CAATCTGAATTCCGGTCTCCC
DNA 2: TGGTGGCTACGACGGGATT
B4: AAACUAC (DNA:RNA)
RNA: GGGAGACCGGAAUUCAGAUUGUCCAAACUACUUAAAUCCCGUCGUAGCCACCA
DNA 1: CAATCTGAATTCCGGTCTCCC
DNA 2: TGGTGGCTACGACGGGATT
B5: CAAAGCA (DNA:RNA)
RNA: B4 RNA with A25C, C28A, U29G, A30C, C31A
DNA 1: CAATCTGAATTCCGGTCTCCC
DNA 2: TGGTGGCTACGACGGGATT
B6: CGGGAGA (DNA:RNA)
RNA: B1 RNA with G25C, C26G, U28G, C30G
DNA 1: CAATCTGAATTCCGGTCTCCC
DNA 2: TGGTGGCTACGACGGGATT
B7: AUGCGCA (DNA:RNA)
RNA: B1 RNA with G25A, C26U, U28C, A29G
DNA 1: CAATCTGAATTCCGGTCTCCC
DNA 2: TGGTGGCTACGACGGGATT
B8: CCCCAUG (DNA:RNA)
RNA: B1 RNA with G25C, G27C, U28C, C30U, A31G
DNA 1: CAATCTGAATTCCGGTCTCCC
DNA 2: TGGTGGCTACGACGGGATT
B9: ACCCUUU (DNA:RNA)
RNA: B4 RNA with A26C, A27C, A30U, C31U
DNA 1: CAATCTGAATTCCGGTCTCCC
DNA 2: TGGTGGCTACGACGGGATT
B10: AUCGCGG (DNA:RNA)
RNA: B4 RNA with A26U, A27C, C28G, U29C, A30G, C31G
DNA 1: CAATCTGAATTCCGGTCTCCC
DNA 2: TGGTGGCTACGACGGGATT
B11: CUUUUUA (DNA:RNA)
RNA: B1 RNA with G25C, C26U, G27U, A29U, C30U
DNA 1: CAATCTGAATTCCGGTCTCCC
DNA 2: TGGTGGCTACGACGGGATT
B12: CGCCGCA (DNA:RNA)
RNA: B1 RNA with G25C, C26G, G27C, U28C, A29G
DNA 1: CAATCTGAATTCCGGTCTCCC
DNA 2: TGGTGGCTACGACGGGATT
B13: GAGGCAU (DNA:RNA)
RNA: B4 RNA with A25G, A27G, C28G, U29C, C31U
DNA 1: CAATCTGAATTCCGGTCTCCC
DNA 2: TGGTGGCTACGACGGGATT
B14: GACGUCU (DNA:RNA)
RNA: B4 RNA with A25G, A27C, C28G, A30C, C31U
DNA 1: CAATCTGAATTCCGGTCTCCC
DNA 2: TGGTGGCTACGACGGGATT
B15: CGCCAGC (DNA:RNA)
RNA: B4 RNA with A25C, A26G, A27C, U29A, A30G
DNA 1: CAATCTGAATTCCGGTCTCCC
DNA 2: TGGTGGCTACGACGGGATT
B16: GGAACUU (DNA:RNA)
RNA: B4 RNA with A25G, A26G, C28A, U29C, A30U, C31U
DNA 1: CAATCTGAATTCCGGTCTCCC
DNA 2: TGGTGGCTACGACGGGATT
B17: UAGGCCG (DNA:RNA)
RNA: B1 RNA with G25U, C26A, U28G, A29C, A31G
DNA 1: CAATCTGAATTCCGGTCTCCC
DNA 2: TGGTGGCTACGACGGGATT
B18: UCUAAUA (DNA:RNA)
RNA: B1 RNA with G25U, G27U, U28A, C30U
DNA 1: CAATCTGAATTCCGGTCTCCC
DNA 2: TGGTGGCTACGACGGGATT
B19: AUGUGAU (DNA:RNA)
RNA: B4 RNA with A26U, A27G, C28U, U29G, C31U
DNA 1: CAATCTGAATTCCGGTCTCCC
DNA 2: TGGTGGCTACGACGGGATT
B20: CAUUGGA (DNA:RNA)
RNA: B1 RNA with G25C, C26A, G27U, A29G, C30G
DNA 1: CAATCTGAATTCCGGTCTCCC
DNA 2: TGGTGGCTACGACGGGATT
B21: GUAGCGC (DNA:RNA)
RNA: B4 RNA with A25G, A26U, C28G, U29C, A30G
DNA 1: CAATCTGAATTCCGGTCTCCC
DNA 2: TGGTGGCTACGACGGGATT
B22: AAUUUGC (DNA:RNA)
RNA: B4 RNA with A27U, C28U, A30G
DNA 1: CAATCTGAATTCCGGTCTCCC
DNA 2: TGGTGGCTACGACGGGATT
B23: CCAUGUA (DNA:RNA)
RNA: B1 RNA with G25C, G27A, A29G, C30U
DNA 1: CAATCTGAATTCCGGTCTCCC
DNA 2: TGGTGGCTACGACGGGATT
B24: UGCGUCC (DNA:RNA)
RNA: B4 RNA with A25U, A26G, A27C, C28G, A30C
DNA 1: CAATCTGAATTCCGGTCTCCC
DNA 2: TGGTGGCTACGACGGGATT
B25: UAGGUCU (DNA:RNA)
RNA: B4 RNA with A25U, A27G, C28G, A30C, C31U
DNA 1: CAATCTGAATTCCGGTCTCCC
DNA 2: TGGTGGCTACGACGGGATT
B26: UGGGCAG (DNA:RNA)
RNA: B4 RNA with A25U, A26G, A27G, C28G, U29C, C31G
DNA 1: CAATCTGAATTCCGGTCTCCC
DNA 2: TGGTGGCTACGACGGGATT
B27: UACAGAG (DNA:RNA)
RNA: B4 RNA with A25U, A27C, C28A, U29G, C31G
DNA 1: CAATCTGAATTCCGGTCTCCC
DNA 2: TGGTGGCTACGACGGGATT
B28: UCGCAAU (DNA:RNA)
RNA: B1 RNA with G25U, U28C, C30A, A31U
DNA 1: CAATCTGAATTCCGGTCTCCC
DNA 2: TGGTGGCTACGACGGGATT
B29: UAUGCCC (DNA:RNA)
RNA: B4 RNA with A25U, A27U, C28G, U29C, A30C
DNA 1: CAATCTGAATTCCGGTCTCCC
DNA 2: TGGTGGCTACGACGGGATT
B30: CAUGCUU (DNA:RNA)
RNA: B4 RNA with A25C, A27U, C28G, U29C, A30U, C31U
DNA 1: CAATCTGAATTCCGGTCTCCC
DNA 2: TGGTGGCTACGACGGGATT
B31: UGUGCGA (DNA:RNA)
RNA: B1 RNA with G25U, C26G, G27U, U28G, A29C, C30G
DNA 1: CAATCTGAATTCCGGTCTCCC
DNA 2: TGGTGGCTACGACGGGATT

The target of this experiment is T1, RBFOX1 RRM RbFoxmut (Fox-RRM*). The experiment in a line: EMSA; HiTS-Eq, 1 nM pool, 10 min; buffer printed only for the single-RNA assays: 10 mM Tris pH 7.5, 150 mM NaCl, 3.4 mM EDTA, 0.001% NP-40, 30 C. To be noted: tags: His6 N-terminal (pET28a); label: 5' 32P. The method in brief:
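These values rest on relative association constants, computed from read-count changes of each RNA species versus the control reaction and normalised to the cognate motif. Reads came from free RNA recovered by 8% native PAGE after purified RbFox RRM (wild type or mutant) at increasing concentrations was equilibrated for 10 min in 50 µL with 1 nM of a 5′-radiolabelled pool with 7 randomized nucleotides and DNA-annealed flanks.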
For orientation: A gel shift assay detects complexes by their altered migration in electrophoresis.
For B1, the binding signal was 0.0806 KA relative to UGCAUGU.

On to B2, for which the binding signal is 0.0876 KA relative to UGCAUGU.

With B3, the binding signal was 0.0634 KA relative to UGCAUGU.

For the molecule B4, the binding signal was 0.0981 KA relative to UGCAUGU.

As for B5, the binding signal was 0.108 KA relative to UGCAUGU.

With B6, the binding signal was 0.117 KA relative to UGCAUGU.

For the molecule B7, the binding signal was 0.172 KA relative to UGCAUGU.

Regarding B8, the binding signal was 0.112 KA relative to UGCAUGU.

As for B9, the binding signal is 0.102 KA relative to UGCAUGU.

For the molecule B10, the binding signal is 0.0979 KA relative to UGCAUGU.

Consider B11, for which the binding signal is 0.114 KA relative to UGCAUGU.

Take B12: the binding signal was 0.173 KA relative to UGCAUGU.

Take B13: the binding signal is 0.106 KA relative to UGCAUGU.

As to B14, the binding signal was 0.0691 KA relative to UGCAUGU.

As for B15, the binding signal is 0.109 KA relative to UGCAUGU.

With B16, the binding signal was 0.0587 KA relative to UGCAUGU.

With B17, the binding signal is 0.111 KA relative to UGCAUGU.

B18: the binding signal was 0.108 KA relative to UGCAUGU.

On to B19, for which the binding signal is 0.113 KA relative to UGCAUGU.

As to B20, the binding signal is 0.106 KA relative to UGCAUGU.

On to B21, for which the binding signal is 0.123 KA relative to UGCAUGU.

Take B22: the binding signal is 0.081 KA relative to UGCAUGU.

Consider B23, for which the binding signal is 0.2 KA relative to UGCAUGU.

Consider B24, for which the binding signal was 0.091 KA relative to UGCAUGU.

B25: the binding signal was 0.0862 KA relative to UGCAUGU.

With B26, the binding signal is 0.0885 KA relative to UGCAUGU.

As to B27, the binding signal is 0.0598 KA relative to UGCAUGU.

B28: the binding signal was 0.0593 KA relative to UGCAUGU.

For B29, the binding signal is 0.08 KA relative to UGCAUGU.

With B30, the binding signal was 0.121 KA relative to UGCAUGU.

As for B31, the binding signal was 0.122 KA relative to UGCAUGU.
